Test results from US20200347115A1 (Hoffmann-La Roche, published 2020).
Blank lines part the entries; values can stand above or below the binder they belong to.

How the values were obtained:
[1] = biological target: T1, human 4-1BB (CD137) (human, UniProt Q07011 24-255); test: cell-based or functional assay; design: AUC of NFκB-luciferase activation curve, HeLa-hu4-1BB-NFκB-luc clone 26, no FAP-expressing cells / AUC of NFκB-luciferase activation curve, HeLa-hu4-1BB-NFκB-luc clone 26, with WM-266-4 cells: unit not given beside the values
[2] = biological target: T1, human 4-1BB (CD137); test: cell-based or functional assay
[3] = biological target: T1, human 4-1BB (CD137); test: flow cytometry on anti-CD3/anti-CD28 pre-activated human PBMCs

B2: FAP (4B9)-4-1BB ligand (71-248) contorsbody P1AA1259 (Fc fusion)
chain 1: REGPELSPDDPAGLLDLRQGMFAQLVAQNVLLIDGPLSWYSDPGLAGVSLTGGLSYKEDTKELVVAKAGVYYVFFQLELRRVVAGEGSGSVSLALHLQPLRSAAGAAALALTVDLPPASSEARNSAFGFQGRLLHLSAGQRLGVHLHTEARARHAWQLTQGATVLGLFRVTPEIPAGLGGGGSGGGGSDKTHTCPPCPAPEAAGGPSVFLFPPKPKDTLMISRTPEVTCVVVDVSHEDPEVKFNWYVDGVEVHNAKTKPREEQYNSTYRVVSVLTVLHQDWLNGKEYKCKVSNKALGAPIEKTISKAKGQPREPQVCTLPPSRDELTKNQVSLSCAVKGFYPSDIAVEWESNGQPENNYKTTPPVLDSDGSFFLVSKLTVDKSRWQQGNVFSCSVMHEALHNHYTQKSLSLSPGGGGGSGGGGSSGGGGSREGPELSPDDPAGLLDLRQGMFAQLVAQNVLLIDGPLSWYSDPGLAGVSLTGGLSYKEDTKELVVAKAGVYYVFFQLELRRVVAGEGSGSVSLALHLQPLRSAAGAAALALTVDLPPASSEARNSAFGFQGRLLHLSAGQRLGVHLHTEARARHAWQLTQGATVLGLFRVTPEIPAGL
chain 2: EVQLLESGGGLVQPGGSLRLSCAASGFTFSSYAMSWVRQAPGKGLEWVSAIIGSGASTYYADSVKGRFTISRDNSKNTLYLQMNSLRAEDTAVYYCAKGWFGGFNYWGQGTLVTVSSASTKGPSVFPLAPSSKSTSGGTAALGCLVKDYFPEPVTVSWNSGALTSGVHTFPAVLQSSGLYSLSSVVTVPSSSLGTQTYICNVNHKPSNTKVDKKV[omitted - human IgG1 Fc with changes]GGGGSGGGGSREGPELSPDDPAGLLDLRQGMFAQLVAQNVLLIDGPLSWYSDPGLAGVSLTGGLSYKEDTKELVVAKAGVYYVFFQLELRRVVAGEGSGSVSLALHLQPLRSAAGAAALALTVDLPPASSEARNSAFGFQGRLLHLSAGQRLGVHLHTEARARHAWQLTQGATVLGLFRVTPEIPAGL
light: EIVLTQSPGTLSLSPGERATLSCRASQSVTSSYLAWYQQKPGQAPRLLINVGSRRATGIPDRFSGSGSGTDFTLTISRLEPEDFAVYYCQQGIMLPPTFGQGTKVEIKRTVAAPSVFIFPPSDEQLKSGTASVVCLLNNFYPREAKVQWKVDNALQSGNSQESVTEQDSKDSTYSLSSTLTLSKADYEKHKVYACEVTHQGLSSPVTKSFNRGEC
AUC of NFκB-luciferase activation curve, HeLa-hu4-1BB-NFκB-luc clone 26, no FAP-expressing cells [1]: 10500
AUC of NFκB-luciferase activation curve, HeLa-hu4-1BB-NFκB-luc clone 26, with NIH/3T3-huFAP clone 19 cells [1]: 49900
AUC of NFκB-luciferase activation curve, HeLa-hu4-1BB-NFκB-luc clone 26, with WM-266-4 cells [1]: 27900
EC50 of NFκB-luciferase activation, HeLa-hu4-1BB-NFκB-luc clone 26, no FAP-expressing cells [1]: 2.81 nM
EC50 of NFκB-luciferase activation, HeLa-hu4-1BB-NFκB-luc clone 26, with NIH/3T3-huFAP clone 19 cells [1]: 0.02 nM
EC50 of NFκB-luciferase activation, HeLa-hu4-1BB-NFκB-luc clone 26, with WM-266-4 cells [1]: 0.12 nM

B3: FAP (4B9)-4-1BB ligand (71-248) contorsbody P1AA1235 (Fc fusion)
chain 1: REGPELSPDDPAGLLDLRQGMFAQLVAQNVLLIDGPLSWYSDPGLAGVSLTGGLSYKEDTKELVVAKAGVYYVFFQLELRRVVAGEGSGSVSLALHLQPLRSAAGAAALALTVDLPPASSEARNSAFGFQGRLLHLSAGQRLGVHLHTEARARHAWQLTQGATVLGLFRVTPEIPAGLGGGGSGGGGSDKTHTCPPCPAPEAAGGPSVFLFPPKPKDTLMISRTPEVTCVVVDVSHEDPEVKFNWYVDGVEVHNAKTKPREEQYNSTYRVVSVLTVLHQDWLNGKEYKCKVSNKALGAPIEKTISKAKGQPREPQVCTLPPSRDELTKNQVSLSCAVKGFYPSDIAVEWESNGQPENNYKTTPPVLDSDGSFFLVSKLTVDKSRWQQGNVFSCSVMHEALHNHYTQKSLSLSPGGGGGSGGGGSREGPELSPDDPAGLLDLRQGMFAQLVAQNVLLIDGPLSWYSDPGLAGVSLTGGLSYKEDTKELVVAKAGVYYVFFQLELRRVVAGEGSGSVSLALHLQPLRSAAGAAALALTVDLPPASSEARNSAFGFQGRLLHLSAGQRLGVHLHTEARARHAWQLTQGATVLGLFRVTPEIPAGL
chain 2: EVQLLESGGGLVQPGGSLRLSCAASGFTFSSYAMSWVRQAPGKGLEWVSAIIGSGASTYYADSVKGRFTISRDNSKNTLYLQMNSLRAEDTAVYYCAKGWFGGFNYWGQGTLVTVSSASTKGPSVFPLAPSSKSTSGGTAALGCLVKDYFPEPVTVSWNSGALTSGVHTFPAVLQSSGLYSLSSVVTVPSSSLGTQTYICNVNHKPSNTKVDKKV[omitted - human IgG1 Fc with changes]GGGGSGGGGSREGPELSPDDPAGLLDLRQGMFAQLVAQNVLLIDGPLSWYSDPGLAGVSLTGGLSYKEDTKELVVAKAGVYYVFFQLELRRVVAGEGSGSVSLALHLQPLRSAAGAAALALTVDLPPASSEARNSAFGFQGRLLHLSAGQRLGVHLHTEARARHAWQLTQGATVLGLFRVTPEIPAGL
light: B2 light
AUC of NFκB-luciferase activation curve, HeLa-hu4-1BB-NFκB-luc clone 26, no FAP-expressing cells [1]: 10300
AUC of NFκB-luciferase activation curve, HeLa-hu4-1BB-NFκB-luc clone 26, with NIH/3T3-huFAP clone 19 cells [1]: 41100
AUC of NFκB-luciferase activation curve, HeLa-hu4-1BB-NFκB-luc clone 26, with WM-266-4 cells [1]: 24600
EC50 of NFκB-luciferase activation, HeLa-hu4-1BB-NFκB-luc clone 26, no FAP-expressing cells [1]: 0.84 nM
EC50 of NFκB-luciferase activation, HeLa-hu4-1BB-NFκB-luc clone 26, with NIH/3T3-huFAP clone 19 cells [1]: 0.06 nM
EC50 of NFκB-luciferase activation, HeLa-hu4-1BB-NFκB-luc clone 26, with WM-266-4 cells [1]: 0.13 nM

More lines, now with the values ahead:

AUC of NFκB-luciferase activation curve, HeLa-hu4-1BB-NFκB-luc clone 26, no FAP-expressing cells [1]: 8030
AUC of NFκB-luciferase activation curve, HeLa-hu4-1BB-NFκB-luc clone 26, with NIH/3T3-huFAP clone 19 cells [1]: 56200
AUC of NFκB-luciferase activation curve, HeLa-hu4-1BB-NFκB-luc clone 26, with WM-266-4 cells [1]: 31500
EC50 of NFκB-luciferase activation, HeLa-hu4-1BB-NFκB-luc clone 26, no FAP-expressing cells [1]: 0.25 nM
EC50 of NFκB-luciferase activation, HeLa-hu4-1BB-NFκB-luc clone 26, with NIH/3T3-huFAP clone 19 cells [1]: 0.01 nM
EC50 of NFκB-luciferase activation, HeLa-hu4-1BB-NFκB-luc clone 26, with WM-266-4 cells [1]: 0.05 nM
AUC, % CD25+ of CD4 T cells, anti-CD3 stimulated human PBMC with NIH/3T3-huFAP clone 19 [2]: 471
AUC, % CD25+ of CD8 T cells, anti-CD3 stimulated human PBMC with NIH/3T3-huFAP clone 19 [2]: 498
AUC, % CD137+ of CD4 T cells, anti-CD3 stimulated human PBMC with NIH/3T3-huFAP clone 19 [2]: 59
AUC, % CD137+ of CD8 T cells, anti-CD3 stimulated human PBMC with NIH/3T3-huFAP clone 19 [2]: 59
EC50, % CD25+ of CD4 T cells, anti-CD3 stimulated human PBMC with NIH/3T3-huFAP clone 19 [2]: 9 pM
EC50, % CD25+ of CD8 T cells, anti-CD3 stimulated human PBMC with NIH/3T3-huFAP clone 19 [2]: 8 pM
EC50, % CD137+ of CD4 T cells, anti-CD3 stimulated human PBMC with NIH/3T3-huFAP clone 19 [2]: 0.07 nM
EC50, % CD137+ of CD8 T cells, anti-CD3 stimulated human PBMC with NIH/3T3-huFAP clone 19 [2]: 0.05 nM
B1: FAP(4B9)-4-1BBL (Charged variant), Construct 2.4 of WO 2016/075278 (Fc fusion)
chain 1: REGPELSPDDPAGLLDLRQGMFAQLVAQNVLLIDGPLSWYSDPGLAGVSLTGGLSYKEDTKELVVAKAGVYYVFFQLELRRVVAGEGSGSVSLALHLQPLRSAAGAAALALTVDLPPASSEARNSAFGFQGRLLHLSAGQRLGVHLHTEARARHAWQLTQGATVLGLFRVTPEIPAGLGGGGSGGGGSREGPELSPDDPAGLLDLRQGMFAQLVAQNVLLIDGPLSWYSDPGLAGVSLTGGLSYKEDTKELVVAKAGVYYVFFQLELRRVVAGEGSGSVSLALHLQPLRSAAGAAALALTVDLPPASSEARNSAFGFQGRLLHLSAGQRLGVHLHTEARARHAWQLTQGATVLGLFRVTPEIPAGLGGGGSGGGGSRTVAAPSVFIFPPSDRKLKSGTASVVCLLNNFYPREAKVQWKVDNALQSGNSQESVTEQDSKDSTYSLSSTLTLSKADYEKHKVYACEVTHQGLSSPVTKSFNRGE[omitted - human IgG1 Fc with changes]
chain 2: REGPELSPDDPAGLLDLRQGMFAQLVAQNVLLIDGPLSWYSDPGLAGVSLTGGLSYKEDTKELVVAKAGVYYVFFQLELRRVVAGEGSGSVSLALHLQPLRSAAGAAALALTVDLPPASSEARNSAFGFQGRLLHLSAGQRLGVHLHTEARARHAWQLTQGATVLGLFRVTPEIPAGLGGGGSGGGGSASTKGPSVFPLAPSSKSTSGGTAALGCLVEDYFPEPVTVSWNSGALTSGVHTFPAVLQSSGLYSLSSVVTVPSSSLGTQTYICNVNHKPSNTKVDEKVEPKSC
heavy: EVQLLESGGGLVQPGGSLRLSCAASGFTFSSYAMSWVRQAPGKGLEWVSAIIGSGASTYYADSVKGRFTISRDNSKNTLYLQMNSLRAEDTAVYYCAKGWFGGFNYWGQGTLVTVSSASTKGPSVFPLAPSSKSTSGGTAALGCLVKDYFPEPVTVSWNSGALTSGVHTFPAVLQSSGLYSLSSVVTVPSSSLGTQTYICNVNHKPSNTKVDKKVEPKSCDKTHTCPPCPAPEAAGGPSVFLFPPKPKDTLMISRTPEVTCVVVDVSHEDPEVKFNWYVDGVEVHNAKTKPREEQYNSTYRVVSVLTVLHQDWLNGKEYKCKVSNKALGAPIEKTISKAKGQPREPQVCTLPPSRDELTKNQVSLSCAVKGFYPSDIAVEWESNGQPENNYKTTPPVLDSDGSFFLVSKLTVDKSRWQQGNVFSCSVMHEALHNHYTQKSLSLSPGK
light: B2 light

binding result [3]: binds
B4: CD19 (2B11)-4-1BB ligand (71-248) contorsbody P1AA1258 (Fc fusion)
chain 1: B2 chain 1
chain 2: QVQLVQSGAEVKKPGASVKVSCKASGYTFTDYIMHWVRQAPGQGLEWMGYINPYNDGSKYTEKFQGRVTMTSDTSISTAYMELSRLRSDDTAVYYCARGTYYYGPQLFDYWGQGTTVTVSSASTKGPSVFPLAPSSKSTSGGTAALGCLVKDYFPEPVTVSWNSGALTSGVHTFPAVLQSSGLYSLSSVVTVPSSSLGTQTYICNVNHKPSNTKVDKKV[omitted - human IgG1 Fc with changes]GGGGSGGGGSREGPELSPDDPAGLLDLRQGMFAQLVAQNVLLIDGPLSWYSDPGLAGVSLTGGLSYKEDTKELVVAKAGVYYVFFQLELRRVVAGEGSGSVSLALHLQPLRSAAGAAALALTVDLPPASSEARNSAFGFQGRLLHLSAGQRLGVHLHTEARARHAWQLTQGATVLGLFRVTPEIPAGL
light: DIVMTQTPLSLSVTPGQPASISCKSSQSLETSTGTTYLNWYLQKPGQSPQLLIYRVSKRFSGVPDRFSGSGSGTDFTLKISRVEAEDVGVYYCLQLLEDPYTFGQGTKLEIKRTVAAPSVFIFPPSDEQLKSGTASVVCLLNNFYPREAKVQWKVDNALQSGNSQESVTEQDSKDSTYSLSSTLTLSKADYEKHKVYACEVTHQGLSSPVTKSFNRGEC
notes: Human IgG1 Fc knob-into-hole with P329G, L234A, L235A; also called CD19-4-1BBL contorsbody P1AA1258
